Reference: PubChem BioAssay AID488969 (Vanderbilt High Throughput Screening Facility, 2010)
In all, about 110,000 compounds were measured (“z-score”: median about -0.1, highest 2% from about 2 on). The list shows a part of the results.

Target: Metabotropic glutamate receptor 8 (Rattus norvegicus) (UniProt P70579)
Experiment: rat mGluR8 modulators via GIRK flux, primary screen, cell-based, thallium flux, HTS (AID 488969)
Conditions: HEK293 rat mGluR8, GIRK (G protein-gated inwardly rectifying potassium channel) thallium flux, FluoZin2; at 10 µM; stronger effect = higher value; submaximal glutamate (EC20) added with thallium

UniProt P70579, sequence (P70579 whole entry, looked up): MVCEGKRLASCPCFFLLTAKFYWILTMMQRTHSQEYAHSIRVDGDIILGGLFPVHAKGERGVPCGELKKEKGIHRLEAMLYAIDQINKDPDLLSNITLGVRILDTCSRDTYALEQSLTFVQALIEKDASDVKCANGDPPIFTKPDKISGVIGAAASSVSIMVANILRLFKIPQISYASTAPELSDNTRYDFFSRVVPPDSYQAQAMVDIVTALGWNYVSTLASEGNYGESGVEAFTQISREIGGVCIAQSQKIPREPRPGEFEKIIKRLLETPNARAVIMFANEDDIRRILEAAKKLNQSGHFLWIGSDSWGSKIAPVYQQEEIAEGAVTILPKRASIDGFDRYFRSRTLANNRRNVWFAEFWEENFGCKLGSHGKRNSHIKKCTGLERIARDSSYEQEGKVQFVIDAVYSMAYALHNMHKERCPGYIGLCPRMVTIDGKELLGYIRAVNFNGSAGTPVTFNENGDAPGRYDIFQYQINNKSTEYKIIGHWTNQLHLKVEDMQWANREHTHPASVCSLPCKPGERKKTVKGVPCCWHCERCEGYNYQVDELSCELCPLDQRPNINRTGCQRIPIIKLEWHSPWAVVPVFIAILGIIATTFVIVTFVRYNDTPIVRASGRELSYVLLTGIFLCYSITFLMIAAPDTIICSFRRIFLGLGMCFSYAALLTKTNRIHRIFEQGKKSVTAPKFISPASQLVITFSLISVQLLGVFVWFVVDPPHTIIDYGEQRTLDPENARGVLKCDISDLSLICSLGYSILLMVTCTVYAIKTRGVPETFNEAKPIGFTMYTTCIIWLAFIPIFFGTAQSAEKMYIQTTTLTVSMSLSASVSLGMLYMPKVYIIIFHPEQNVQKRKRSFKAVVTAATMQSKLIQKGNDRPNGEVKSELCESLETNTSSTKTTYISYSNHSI

Compared with `CC(=NCc1ccc2c(c1)OCO2)C1=C(O)c2ccccc2C1=O`, `COc1ccccc1NC(=O)c1cc2n(n1)C(C(F)(F)F)CC(c1ccc3c(c1)OCO3)N2` (stereo not given) is higher in z-score: -0.0533 for the first, -0.0221 for the second.

Going from `CCC1(CC)C(=O)NC(=O)NC1=NCCc1c[nH]c2ccccc12` to `Cc1ccccc1Nc1cc(=O)oc2ccccc12`, the z-score falls from 0.00649 to -0.248.

First: COc1ccc(CCNC(=O)CN(c2ccccc2OC)S(C)(=O)=O)cc1OC
Second: COc1ccc(C(=O)N/N=C/C(C)c2ccccc2)cc1OC (stereo not given)
The z-score of the first is higher: 1.13 for the first, -0.491 for the second.

First: Cc1[nH]n(-c2ccc(Br)cc2)c(=O)c1C=Nc1ccc(S(=O)(=O)Nc2nccs2)cc1
Second: Cc1nn(-c2ccc(F)cc2)c(Cl)c1/C=C1\C(=O)Nc2ccccc21
The z-score of the first is lower: -0.653 for the first, -0.367 for the second.

Going from `O=C(c1ccco1)N1CCN(C(c2cccs2)c2nnnn2C2CCCCC2)CC1` (stereo not given) to `Cc1ccc(C(OC(=O)c2ccco2)C(=O)NC2CCCCC2)cc1` (stereo not given), the z-score rises from -0.151 to 1.4.

First: CCOc1ccccc1N1CCN(S(=O)(=O)c2ccc(Cl)s2)CC1
Second: COc1ccccc1N1CCN(C(=O)CCNS(=O)(=O)c2ccc(Br)s2)CC1
The z-score of the first is lower: -0.553 for the first, -0.0521 for the second.

Going from `COC(=O)c1c(N)sc(C(C)=O)c1C` to `COc1ccc(C(=O)NCCSc2ccc(C)cc2)cc1`, the z-score falls from 1.78 to -0.404.

First: O=C(NCCC1=CCCCC1)c1cnc2n(c1=O)CCS2
Second: O=C(NCCN1CCOCC1)c1cc(-c2cccs2)on1
The z-score of the first is higher: -0.139 for the first, -1.2 for the second.

First: C=CCN1C(=O)C(CC(=O)Nc2ccccc2)SC1=Nc1c(C)n(C)n(-c2ccccc2)c1=O (stereo not given)
Second: COc1ccccc1NC(=O)c1ccc(NC(=O)COC(=O)CC(NC(=O)c2ccccc2Cl)c2ccccc2)cc1 (stereo not given)
The z-score of the first is higher: 1.07 for the first, -0.112 for the second.

Compared with `CCOc1ccc2nc(SCC(=O)N3CCCCCC3)c(C#N)cc2c1`, `O=C(Nc1ccc2c(c1)nc1n2CCOC1)C1CCCCC1` is lower in z-score: 0.241 for the first, 0.0939 for the second.

First: COc1ccc(N2CCN(c3ncnc4c3cnn4-c3ccc(C)cc3C)CC2)cc1
Second: Cc1ccc(-c2nn(-c3cc(Cl)ccc3[N+](=O)[O-])c(=O)c3ccccc23)cc1
The z-score of the first is lower: -0.495 for the first, -0.423 for the second.

Compared with `NC(=O)c1ccc[n+](Cc2ccccc2)c1`, `COc1ccc(CCNC(=O)/C(=C/c2cccnc2)NC(=O)c2ccccc2)cc1` is lower in z-score: -0.151 for the first, -0.177 for the second.

First: C=CCn1cc(-c2cccc(Cl)c2)cc(C#N)c1=O
Second: Cc1nn(C(C)c2nc(-c3ccccc3)no2)c(C)c1[N+](=O)[O-] (stereo not given)
The z-score of the first is higher: -0.221 for the first, -0.432 for the second.

Compared with `CCN(CC)CCNc1ccc(Cl)cc1[N+](=O)[O-]`, `Cc1cc(Cl)c(S(N)(=O)=O)cc1OCC(N)=O` is lower in z-score: 0.418 for the first, 0.0973 for the second.

Compared with `Cc1ccc(C)n1-c1nc(=S)[nH][nH]1`, `O=C(NC1CCCCC1)C1CC(=O)N(c2ccc(Cl)cc2)C1` (stereo not given) is lower in z-score: -0.129 for the first, -0.558 for the second.
